26 compounds from PubChem BioAssay AID1963576 (National Center for Advancing Translational Sciences (NCATS), 2024) can be followed below.

Hit rate of the full screen: of about 46,000 compounds, about 60 (0.1%) were called active. About 3% were inconclusive and are not listed. Calls follow the shape of the dose curve; as a rule, active = well fitted inhibition curve with a large enough effect; inconclusive = small, poorly fitted or top-dose-only effect; inactive = no such curve, though single readings can be large or run the other way. Some of the results follow.

A short description of the experiment: Primary qHTS assay for Inhibitors of ovarian cancer metastasis using an organotypic tumor microenvironment (TME) model. Also: nearly all actives have a fitted effect of over 65% in size.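 As to activity change, negative = inhibition: plate controls were DMSO wells for no effect and tomatine positive control wells for full effect.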 The following applies: SKOV3ip1-GFP adhesion/invasion on 3D omental model, fluorescence; series mostly up to 45.8 µM; activity change, negative = inhibition: at the top concentration. A digest of the protocol: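 A 3D layer of primary human omental fibroblasts, mesothelial cells, fibronectin and collagen I, grown 48 hr, received SKOV3ip1-GFP cells in serum-free medium plus compounds at 0.36-46 umol/L. After 2 hr RT and 16 hr 37 C, fixed adherent GFP cells were counted; normalized to DMSO and tomatine.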
On to `CCCOC(=O)c1c(NC(=O)c2cc3nc(-c4ccc(OC)cc4)cc(C(F)(F)F)n3n2)sc2c1CCCC2`, for which the “activity change, negative = inhibition” value is inactive: 13.3%.
On the same count and under the same terms, in the case of `COc1cccc(NC(=O)CSc2c(C)cnc3c2c(=O)n(C)c(=O)n3C)c1` it was inactive: -2.08%; in that of `CCOc1ccc(N2CC(NC(=O)c3cc4ccccc4o3)CC2=O)cc1` (stereo unspecified), inactive: -10.9%.
In the case of `Cc1ccc(CSc2nc3ccncc3n2Cc2nc(-c3ccc(Cl)cc3)oc2C)cc1`, the result was inactive.
For the compound `COc1cc([C@@H]2c3cc4c(cc3[C@H](O)[C@H]3COC(=O)[C@@H]23)OCO4)cc(OC)c1OC`, the “activity change, negative = inhibition” value was inactive: 25.9%.
Turning to `CCOc1ccc(S(=O)(=O)N(C(C)=O)c2ccc3oc(C)c(C(=O)OC)c3c2)cc1`, the “activity change, negative = inhibition” value is inactive: -20.2%.
On the same count and under the same terms, for `COc1cc(Cl)c(C)cc1NC(=O)c1nn(-c2ccc(C)cc2)c(=O)n(C)c1=O` the value was inactive: 2.84%; for `COc1ccccc1N1CCN(C(=O)c2cnn(C(C)(C)C)c2C2CCN(C(=O)OC(C)(C)C)CC2)CC1`, inactive: -1.82%; for `CCCC(=O)Nc1cccc(-c2nc3ncccc3o2)c1`, inactive: -8.73%.
On the same count and under the same terms, for `COc1ccc2oc(=O)c(C(=O)N3CCN(c4cc(Cl)ccc4Cl)CC3)cc2c1` the value was inactive: 1.6%; for `CCOC(=O)c1ccc(NC(=O)C(=O)NCCc2ccc(OC)cc2)cc1`, inactive: -0.0558%.
As for `COc1ccc(CCNC(=O)CSc2cn(CCNC(=O)c3ccccc3F)c3ccccc23)cc1OC`, the outcome was inactive.
As for `CN1CCN(C(=O)C(=O)Nc2c3c(nn2-c2cccc(Cl)c2)CSC3)CC1`, the “activity change, negative = inhibition” value was inactive: 2.69%.
Same read-out and setting: for `CCCCOC(=O)Cn1nnc2sc(-c3ccccc3)cc2c1=O` the value was inactive: -6.69%; for `O=C(CSc1ncc(-c2ccccc2)[nH]1)Nc1ccc(F)cc1F`, inactive: 2.76%.
Regarding `O=C(CCCCn1c(=O)c2ccccc2n(CC(=O)Nc2ccc(F)cc2F)c1=O)NCc1ccccc1Cl`, the result was inactive.
Regarding `COc1ccc(Nc2cc(C(=O)NCc3cccs3)c3ccccc3n2)cc1`, the “activity change, negative = inhibition” value was inactive: 0.191%.
Take `CCOc1ccc(C2=C(C(=O)CC)Sc3nncn3N2C(=O)CC)cc1`: the “activity change, negative = inhibition” value is inactive: -19.2%.
With `COC(=O)c1c(SC)nc2ccccc2c1OCc1ccc(C)cc1`, the “activity change, negative = inhibition” value is inactive: 2.99%.
Consider `CCc1ccccc1N1C(=O)N(CC(=O)c2ccc(Cl)cc2)c2ccccc2S1(=O)=O`, for which the “activity change, negative = inhibition” value was inactive: 1.77%.
For the compound `Cc1ccc(Cn2c(=O)n(CCc3ccccc3)c(=O)c3c(C)c(C)sc32)cc1`, the “activity change, negative = inhibition” value was inactive: -3.23%.
On to `CCOC(=O)c1c(C)[nH]c(C)c1S(=O)(=O)N1CCCC(C(=O)NCc2ccc(C)cc2)C1` (stereo unspecified), for which the “activity change, negative = inhibition” value is inactive: 16.6%.
Still for that read-out and setting: in the case of `Clc1ccc(C(Cn2ccnc2)OCc2ccsc2Cl)c(Cl)c1` (stereo unspecified) it was inactive: -5.3%; in that of `COc1cc(C(=O)N2CCC(N3CCN(C)CC3)CC2)ccc1Nc1ncc2c(n1)N(C)c1ccccc1C(=O)N2C`, inactive: 10.8%; in that of `CCCCn1cc(S(=O)(=O)c2ccc(Cl)cc2)c(=O)c2cc(F)c(N3CCCC(C)C3)cc21` (stereo unspecified), inactive: -6.62%.
With `CCOC(=O)c1cc(S(=O)(=O)N2CCN(c3cccc(OC)c3)CC2)[nH]n1`, the “activity change, negative = inhibition” value was inactive: 1.75%.
